We go through five molecules from article PMC9221696.

Amino acid sequences for entries named in this document (tags omitted). Residues count along the entry.
UniProt Q13158, residues 97-181: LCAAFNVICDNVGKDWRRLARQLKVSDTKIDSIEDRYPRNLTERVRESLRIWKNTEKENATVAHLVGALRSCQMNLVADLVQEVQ

These are yes or no findings as the source states them, for the method shown. In cells and extracts the contact can be indirect. Some binding calls cover weakened binding; strength is not graded here. For some assays here: Tags and fused reporters may be left off the sequences shown.

The target of assay [1] is ALPS-associated Fas mutant Fas-A257D tagged with mCerulean3 or mVenus (human) (UniProt P25445). Briefly: FRET or BRET; flow-cytometric FRET in live Jurkat cells co-transfected with homotypic pairs of Fas receptors, one tagged with mCerulean3 and one with mVenus; 24 h after transfection cells were treated with FasL-LZ and read at time points from 5 min; fold change in FRET over untreated cells; RapoC2 (Fas-deficient) cells; for wild-type Fas also wild-type, I2.1 (FADD-deficient) and I9.2 (caspase-8-deficient) Jurkat cells. In general terms: In BRET a luciferase serves as donor, and the signal depends on an acceptor being close.

In assay [2] the target is Fas-C199V palmitoylation mutant tagged with mCerulean3 or mVenus (human) (UniProt P25445). Described as above.
The target in assay [3] is ALPS-associated Fas mutant Fas-E261K tagged with mCerulean3 or mVenus (human) (UniProt P25445). Described as above.
Assay [4] has as its target wild-type Fas receptor (Fas/CD95) tagged with mCerulean3 or mVenus (human) (UniProt P25445). Briefly: FRET or BRET; flow-cytometric FRET in live RapoC2 (Fas-deficient) Jurkat cells co-transfected with Cerulean3-tagged FADD DD and wild-type or mutant Fas; cells were treated with FasL-LZ; change in FRET over untreated cells.
The target in assay [5] is Fas-C199V palmitoylation mutant tagged with mCerulean3 or mVenus (human) (UniProt P25445). The description is as above.
The target in assay [6] is ALPS-associated Fas mutant Fas-A257D tagged with mCerulean3 or mVenus (human) (UniProt P25445). The assay is described as above.
Assay [7] has as its target ALPS-associated Fas mutant Fas-E261K tagged with mCerulean3 or mVenus (human) (UniProt P25445). The description is as above.
In assay [8] the target is T1, wild-type Fas receptor (Fas/CD95) tagged with mCerulean3 or mVenus (human), P25445.
T1 chain: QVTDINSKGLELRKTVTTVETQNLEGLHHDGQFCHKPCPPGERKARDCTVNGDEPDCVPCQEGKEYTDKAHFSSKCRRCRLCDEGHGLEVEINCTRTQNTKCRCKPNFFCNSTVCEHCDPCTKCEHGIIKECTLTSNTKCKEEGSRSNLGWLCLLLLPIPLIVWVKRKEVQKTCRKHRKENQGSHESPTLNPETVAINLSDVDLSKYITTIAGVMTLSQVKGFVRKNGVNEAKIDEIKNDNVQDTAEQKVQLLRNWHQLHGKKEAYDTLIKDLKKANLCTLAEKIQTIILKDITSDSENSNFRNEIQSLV
Briefly: FRET or BRET; flow-cytometric FRET in live Jurkat cells co-transfected with homotypic pairs of Fas receptors, one tagged with mCerulean3 and one with mVenus; 24 h after transfection cells were treated with FasL-LZ and read at time points from 5 min; fold change in FRET over untreated cells; RapoC2 (Fas-deficient) cells; for wild-type Fas also wild-type, I2.1 (FADD-deficient) and I9.2 (caspase-8-deficient) Jurkat …. To be noted: remark: other sources report otherwise.

As for “ALPS-associated Fas mutant Fas-A257D tagged with mCerulean3 or mVenus (from UniProt P25445 26-335) (receptor)”, in assay [1], the binding result is reported as “binds”.

As to “Fas-C199V palmitoylation mutant tagged with mCerulean3 or mVenus (from UniProt P25445 26-335) (receptor)”, in assay [2], the binding entry was “binds”.

As for “ALPS-associated Fas mutant Fas-E261K tagged with mCerulean3 or mVenus (from UniProt P25445 26-335) (receptor)”, the binding entry in assay [3] is recorded as “binds”.

With “Cerulean3-tagged FADD containing only the death domain (FADD DD) (from UniProt Q13158 97-181) (domain or fragment)”, the binding result in assay [4] was “binds”; in assay [5] it was “binds”; in assay [6], “no binding”; in assay [7], “no binding”.

B1: wild-type Fas receptor (Fas/CD95) tagged with mCerulean3 or mVenus, P25445 26-335 (receptor)
chain: QVTDINSKGLELRKTVTTVETQNLEGLHHDGQFCHKPCPPGERKARDCTVNGDEPDCVPCQEGKEYTDKAHFSSKCRRCRLCDEGHGLEVEINCTRTQNTKCRCKPNFFCNSTVCEHCDPCTKCEHGIIKECTLTSNTKCKEEGSRSNLGWLCLLLLPIPLIVWVKRKEVQKTCRKHRKENQGSHESPTLNPETVAINLSDVDLSKYITTIAGVMTLSQVKGFVRKNGVNEAKIDEIKNDNVQDTAEQKVQLLRNWHQLHGKKEAYDTLIKDLKKANLCTLAEKIQTIILKDITSDSENSNFRNEIQSLV
In the case of B1, the binding result in assay [8] was “binds”.
